Assay results published in patent US10751318B2, “Pharmaceutical co-crystal and use thereof” (SYN-NAT PRODUCTS ENTERPRISE LLC, priority 2015, dated 2020).
Where two headings read alike, the source gives them in different places.

Key:
Hantaan virus (HTNV) = type: cell-based; conditions: 7 d, VeroE6 cells

## carboplatin cis-cyclobutane-1,2-dicarboxylic acid co-crystal [CBCBP]
Hantaan virus (HTNV); 2.3 μg/mL
  inhibition rate of HTNV: 6.5%
Hantaan virus (HTNV); 4.6 μg/mL
  inhibition rate of HTNV: 20.0%
Hantaan virus (HTNV); 9.3 μg/mL
  inhibition rate of HTNV: 25.5%
Hantaan virus (HTNV); 18.7 μg/mL
  inhibition rate of HTNV: 40.0%
Hantaan virus (HTNV); 37.5 μg/mL
  inhibition rate of HTNV: 50.0%
Hantaan virus (HTNV); regression equation
  IC50 inhibition of HTNV: 33.684 µg/mL
VeroE6 cells
  TC50 on VeroE6 cells: 58.367 µg/mL
